Consider 29 cell lines from the supplement of paper PMC4967469.

What is called IC50 is the concentration that inhibits the measured activity by half.

The IC50 comes from the fitted curve, where viability falls to half of the control; a fit beyond the top or the lowest dose is shown as a bound at that dose. AUC is the area under the same curve over the 256-fold range up to the top dose, as a fraction; it is 1 without any effect and falls as sensitivity rises. Any top dose called inferred was derived from the fitted curves, not read from the paper. For some assays here: An entry number marks a drug with two screens in the source, which often give different values.

Compound in one assay: O=C(c1cc(Cc2n[nH]c(=O)c3ccccc23)ccc1F)N1CCN(C(=O)C2CC2)CC1 [Olaparib]
Description: Viability of human cancer cell lines after 72 h of drug (GDSC screen). The conditions noted are these: top dose 5 µM; screen: GDSC drug entry 1017; top dose inferred. As to the method: (§1)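 Human cancer cell lines in 384-well plates, medium with 10% serum, drug for 72 h over a 256-fold dose range (nine 2-fold or five 4-fold steps up to the top dose). Adherent lines were fixed and stained with the nucleic acid dye Syto60, suspension lines read with resazurin; signal relative to control wells, capped at 0 and 100%. One two-parameter sigmoid per drug and line, fitted in a mixed model over all curves with the slope shared within a line.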
A375 (melanoma, adherent): the AUC turned out to be 0.917 and the IC50 was over 5 µM.

For CAL-78 (chondrosarcoma, adherent), the AUC stood at 0.986 and the IC50 is over 5 µM.

On to CL-34 (large intestine, adherent), for which the AUC was determined as 0.984 and the IC50 is over 5 µM.

In the case of DIFI (large intestine, adherent), the AUC was determined as 0.988 and the IC50 was over 5 µM.

With KU-19-19 (bladder, adherent), the AUC turned out to be 0.977 and the IC50 was over 5 µM.

Turning to NY (osteosarcoma, adherent), the AUC was 0.984 and the IC50 is over 5 µM.

Turning to PCI-30 (head and neck, adherent), the AUC amounted to 0.898 and the IC50 is over 5 µM.

On to PL4 (pancreas, adherent), for which the AUC stood at 0.985 and the half-maximal inhibitory concentration (IC50) is over 5 µM.

Consider “RERF-LC-KJ (lung adenocarcinoma, adherent)”, for which the AUC turned out to be 0.987 and the IC50 was over 5 µM.

RKN (ovary, adherent): the AUC turned out to be 0.974 and the IC50 is over 5 µM.

Consider RPMI-7951 (melanoma, adherent), for which the AUC was determined as 0.984 and the IC50 is over 5 µM.

Consider “SBC-3 (small cell lung carcinoma, adherent)”, for which the AUC was 0.934 and the IC50 was over 5 µM.

For SF295 (glioma, adherent), the AUC amounted to 0.955 and the IC50 is over 5 µM.

As for SKN (uterus, adherent), the AUC stood at 0.914 and the IC50 was over 5 µM.

For the cell line SW626 (ovary, adherent), the AUC worked out at 0.982 and the IC50 is over 5 µM.

“SW1271 (small cell lung carcinoma, adherent)”: the AUC was determined as 0.984 and the IC50 is over 5 µM.

With TOV-21G (ovary, adherent), the AUC worked out at 0.784 and the IC50 worked out at 2.33 µM.

With TOV-112D (ovary, adherent), the AUC stood at 0.962 and the IC50 was over 5 µM.

In the case of TT2609-C02 (thyroid, adherent), the AUC is 0.964 and the IC50 was over 5 µM.

With TYK-nu (ovary, adherent), the AUC is 0.938 and the IC50 was over 5 µM.

Staying with this assay, now noted: top dose 10 µM; screen: GDSC drug entry 1495.
For the cell line A375 (melanoma, adherent), the AUC worked out at 0.883 and the IC50 was determined as 7.45 µM.

Turning to A673 (rhabdomyosarcoma, adherent), the AUC was determined as 0.786 and the IC50 is 3.85 µM.

CAL-78 (chondrosarcoma, adherent): the AUC came out at 0.953 and the IC50 was over 10 µM.

For CL-34 (large intestine, adherent), the AUC worked out at 0.986 and the IC50 was over 10 µM.

DIFI (large intestine, adherent): the AUC is 0.982 and the IC50 was over 10 µM.

For H2591 (mesothelioma, adherent), the AUC is 0.98 and the IC50 was over 10 µM.

As to MFE-319 (endometrium, adherent), the AUC is 0.972 and the IC50 is over 10 µM.

Turning to “NCI-H2066 (small cell lung carcinoma, adherent)”, the AUC came out at 0.97 and the IC50 is over 10 µM.

For the cell line NY (osteosarcoma, adherent), the AUC was 0.951 and the IC50 was over 10 µM.

As for PCI-30 (head and neck, adherent), the AUC turned out to be 0.954 and the IC50 was over 10 µM.

With PL4 (pancreas, adherent), the AUC turned out to be 0.963 and the IC50 was over 10 µM.

As to “RERF-LC-KJ (lung adenocarcinoma, adherent)”, the AUC was found to be 0.986 and the IC50 is over 10 µM.

With RKN (ovary, adherent), the AUC turned out to be 0.915 and the IC50 is over 10 µM.

Take “SBC-3 (small cell lung carcinoma, adherent)”: the AUC came to 0.903 and the IC50 was over 10 µM.

Regarding SF295 (glioma, adherent), the AUC is 0.91 and the IC50 is over 10 µM.

In the case of SK-LU-1 (lung adenocarcinoma, adherent), the AUC stood at 0.887 and the IC50 is over 10 µM.

On to SK-MEL-28 (melanoma, adherent), for which the AUC turned out to be 0.979 and the IC50 was over 10 µM.

Regarding SKN (uterus, adherent), the AUC was found to be 0.905 and the IC50 was over 10 µM.

For the cell line SU-DHL-10 (B-cell lymphoma, suspension), the AUC worked out at 0.997 and the IC50 is over 10 µM.

SW626 (ovary, adherent): the AUC was 0.962 and the IC50 was over 10 µM.

Take “SW1271 (small cell lung carcinoma, adherent)”: the AUC stood at 0.969 and the IC50 is over 10 µM.

For the cell line TOV-21G (ovary, adherent), the AUC stood at 0.869 and the IC50 is over 10 µM.

With TOV-112D (ovary, adherent), the AUC worked out at 0.944 and the IC50 is over 10 µM.

For the cell line TT2609-C02 (thyroid, adherent), the AUC came to 0.985 and the IC50 is over 10 µM.

Consider TYK-nu (ovary, adherent), for which the AUC was 0.908 and the IC50 is over 10 µM.

Compound in the next assay: O=C1NC(=O)c2c1c(-c1ccccc1Cl)cc1[nH]c3ccc(O)cc3c21 [Wee1 inhibitor 681640]
Described as above. The note with it: top dose 2 µM; top dose inferred. Here is the method:
as §1
For A375 (melanoma, adherent), the AUC was 0.954 and the IC50 is over 2 µM.

In the case of A549 (lung adenocarcinoma, adherent), the AUC amounted to 0.972 and the IC50 was over 2 µM.

As for A673 (rhabdomyosarcoma, adherent), the AUC is 0.986 and the IC50 is over 2 µM.

For CAL-78 (chondrosarcoma, adherent), the AUC was 0.986 and the IC50 was over 2 µM.

Regarding CL-34 (large intestine, adherent), the AUC is 0.987 and the IC50 is over 2 µM.

Turning to DIFI (large intestine, adherent), the AUC amounted to 0.988 and the IC50 is over 2 µM.

Consider H2591 (mesothelioma, adherent), for which the AUC turned out to be 0.965 and the IC50 was over 2 µM.

Turning to Jurkat (T-cell leukaemia, suspension), the AUC came to 0.992 and the IC50 is over 2 µM.

In the case of KU-19-19 (bladder, adherent), the AUC came out at 0.928 and the IC50 is over 2 µM.

Turning to MFE-319 (endometrium, adherent), the AUC was 0.898 and the IC50 is over 2 µM.
